# Results taken from the supplement of paper PMC8728848.
# This is one part of the list.
# B1: Epa1-NP (Candida glabrata), Q6VBJ0 (protein)
# chain: MILNPALFLNKCVCIYTTLILLLLTNGGYATSSNDISLASKDPTTFPLGCSPDITTPKKGLSMELYSYDFRKKGSYPCWDAAYLDPNYPRTGYKSHRLLAKVDGVTGNINFYYHATKGCTPQLGHLPASYNYPKPLTMTNFTMLLYGYFRPKVTGFHTFTISADDLLFVNFGAGNAFDCCRRDSSADHFGNYQAYAIWGSKTAKDELTVHLDAGVYYPIRLFYNNREYDGALSFTFKTESNENTVSDFSEYFFSLDDTEEGCPGLISYDSSCASVKTSKIIGIDYHTETPNENLVPITKTIYHLGIPCTGTTTTPLCGSGFYDPLANKCVTINTSSTSSVTKTTSHTTSKEVSFHSSISSQKTLIPKSIPSPYGPIKSQSIPTEMETSSEISSSEYAFSDVISTPSHSPYTKKHSSLNSSSYTSTVIHSLTSYSISQGIFSTSLSEQNITSKSSTDKFSTATSMSNNITQSSIIISQFSTNNENYTTTSMHTSSDKISTETLNNSISTTTSILFSNSSTILKNNTTIISSDKDTHYHPVNPTIVCSTNKTEIICASITQPSISNSNNHWSSSVLKFNSTTVRSTLPSSAGSNETSINVPFSSSTESNTSTSSTSTSNSKMVRSTLPSSAGSNETSISVPFSSSTESNTSTSSTSTSNSKMVRSTLPSSAGSNETSINVPFSSSTESNTSTSSTSTSNSKTVRSTPFSSAGIIMTSLSQRNNKSASSYASSNSKCYNTADSCRKVHSTPSYLLTSSYTSEGVDYDCSLVSTKLKINDTNCVNNKHTTKSCLKTSVTTTIPTLEIKTARKSSSNTIGLHSYPTSSPNKSISSAPIIGYISSFKTIKTASPSYQTSDLTTITTITSLNNPGSTAVENTHESNDKSRKTSSNDISSKHSVIKETKDAVESSNKSHQTNTLKCSSIIIASSSHNSYESLGGTTLTLTLSKVYSPQNNDTLPFLEISEVNPSRTVLPESSKMMQYLTSTEERNKTARNTIATNIVSISTFHFEGEGNAIRMGYTQLLLMLIGIIVMNIGT
# Tests used:
# Experiment in all cases: glycan array binding signal (z-score within array); higher = stronger binding
# Settings in all cases: glycan notation: IUPAC condensed, linker removed
# [1] = biological target: Neu5Ac(a2-3)Gal(b1-3)GalNAc(b1-3)Gal(a1-4)Gal(b1-4)Glc
# Procedure, shortened: (§1)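 Glycan array data came from 3228 arrays in the Consortium for Functional Glycomics database, and only arrays with an available protein sequence were kept. Glycan names were put into IUPAC-condensed notation, and columns mapping to the same glycan were averaged. The binding signal is a within-array Z-score, averaged across arrays of one protein sequence run at different concentrations or buffers and across linkers. A negative Z-score can be read as non-binding.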
# [2] = biological target: Neu5Ac(a2-3)Gal(b1-3)GalNAc(b1-4)Gal(b1-4)Glc
# Procedure, shortened: as §1
# [3] = biological target: Neu5Ac(a2-3)Gal(b1-3)GalNAc(b1-4)[Neu5Ac(a2-3)]Gal(b1-4)Glc
# Procedure, shortened: as §1
# [4] = biological target: Neu5Ac(a2-3)Gal(b1-3)GalNAc(b1-4)[Neu5Ac(a2-8)Neu5Ac(a2-3)]Gal(b1-4)Glc
# Procedure, shortened: as §1
# [5] = biological target: Neu5Ac(a2-3)Gal(b1-3)GalNAc6S
# Procedure, shortened: as §1
# [6] = biological target: Neu5Ac(a2-3)Gal(b1-3)GlcNAc
# Procedure, shortened: as §1
# [7] = biological target: Neu5Ac(a2-3)Gal(b1-3)GlcNAc(b1-2)Man
# Procedure, shortened: as §1
# [8] = biological target: Neu5Ac(a2-3)Gal(b1-3)GlcNAc(b1-2)Man(a1-3)[GlcNAc(b1-4)][Neu5Ac(a2-3)Gal(b1-3)GlcNAc(b1-2)Man(a1-6)]Man(b1-4)GlcNAc(b1-4)GlcNAc
# Procedure, shortened: as §1
# [9] = biological target: Neu5Ac(a2-3)Gal(b1-3)GlcNAc(b1-2)Man(a1-3)[Neu5Ac(a2-3)Gal(b1-3)GlcNAc(b1-2)Man(a1-6)]Man(b1-4)GlcNAc(b1-4)GlcNAc
# Procedure, shortened: as §1
# [10] = biological target: Neu5Ac(a2-3)Gal(b1-3)GlcNAc(b1-2)[Neu5Ac(a2-3)Gal(b1-3)GlcNAc(b1-4)]Man(a1-6)[Neu5Ac(a2-3)Gal(b1-3)GlcNAc(b1-2)Man(a1-3)]Man(b1-4)GlcNAc(b1-4)GlcNAc
# Procedure, shortened: as §1
# [11] = biological target: Neu5Ac(a2-3)Gal(b1-3)GlcNAc(b1-3)Gal(b1-3)GlcNAc
# Procedure, shortened: as §1
# [12] = biological target: Neu5Ac(a2-3)Gal(b1-3)GlcNAc(b1-3)Gal(b1-4)GlcNAc
# Procedure, shortened: as §1
# [13] = biological target: Neu5Ac(a2-3)Gal(b1-3)GlcNAc(b1-3)GalNAc
# Procedure, shortened: as §1
# [14] = biological target: Neu5Ac(a2-3)Gal(b1-3)GlcNAc(b1-6)GalNAc
# Procedure, shortened: as §1
# [15] = biological target: Neu5Ac(a2-3)Gal(b1-3)GlcNAc6S
# Procedure, shortened: as §1
# [16] = biological target: Neu5Ac(a2-3)Gal(b1-3)[Fuc(a1-4)]GlcNAc
# Procedure, shortened: as §1
# [17] = biological target: Neu5Ac(a2-3)Gal(b1-3)[Fuc(a1-4)]GlcNAc(b1-3)Gal(b1-3)[Fuc(a1-4)]GlcNAc
# Procedure, shortened: as §1
# [18] = biological target: Neu5Ac(a2-3)Gal(b1-3)[Fuc(a1-4)]GlcNAc(b1-3)Gal(b1-4)[Fuc(a1-3)]GlcNAc
# Procedure, shortened: as §1
# [19] = biological target: Neu5Ac(a2-3)Gal(b1-3)[GlcNAc(b1-6)]GalNAc
# Procedure, shortened: as §1
# [20] = biological target: Neu5Ac(a2-3)Gal(b1-3)[Neu5Ac(a2-3)Gal(b1-4)]GlcNAc
# Procedure, shortened: as §1
# [21] = biological target: Neu5Ac(a2-3)Gal(b1-3)[Neu5Ac(a2-6)]GalNAc
# Procedure, shortened: as §1
# [22] = biological target: Neu5Ac(a2-3)Gal(b1-3)[Neu5Ac(a2-6)]GlcNAc(b1-3)[Fuc(a1-3)[Gal(b1-4)]GlcNAc(b1-6)]Gal(b1-4)Glc
# Procedure, shortened: as §1
# [23] = biological target: Neu5Ac(a2-3)Gal(b1-3)]Neu5Ac(a2-3)Gal(b1-4)]GlcNAc
# Procedure, shortened: as §1
# [24] = biological target: Neu5Ac(a2-3)Gal(b1-4)Glc
# Procedure, shortened: as §1
# [25] = biological target: Neu5Ac(a2-3)Gal(b1-4)GlcNAc
# Procedure, shortened: as §1
# [26] = biological target: Neu5Ac(a2-3)Gal(b1-4)GlcNAc(b1-2)Man
# Procedure, shortened: as §1
# [27] = biological target: Neu5Ac(a2-3)Gal(b1-4)GlcNAc(b1-2)Man(a1-3)[GlcNAc(b1-2)Man(b1-4)GlcNAc(b1-2)Man(a1-6)]Man(b1-4)GlcNAc(b1-4)GlcNAc
# Procedure, shortened: as §1
# [28] = biological target: Neu5Ac(a2-3)Gal(b1-4)GlcNAc(b1-2)Man(a1-3)[GlcNAc(b1-4)][Neu5Ac(a2-3)Gal(b1-4)GlcNAc(b1-2)Man(a1-6)]Man(b1-4)GlcNAc(b1-4)GlcNAc
# Procedure, shortened: as §1
# [29] = biological target: Neu5Ac(a2-3)Gal(b1-4)GlcNAc(b1-2)Man(a1-3)[Neu5Ac(a2-3)Gal(b1-4)GlcNAc(b1-2)Man(a1-6)]Man(b1-4)GlcNAc(b1-4)GlcNAc
# Procedure, shortened: as §1
# [30] = biological target: Neu5Ac(a2-3)Gal(b1-4)GlcNAc(b1-2)Man(a1-3)[Neu5Ac(a2-3)Gal(b1-4)GlcNAc(b1-2)Man(a1-6)]Man(b1-4)GlcNAc(b1-4)[Fuc(a1-6)]GlcNAc
# Procedure, shortened: as §1
binder,measurement,setting,value
B1,glycan array binding signal (z-score),[1],-0.274
same,glycan array binding signal (z-score),[2],-0.285
same,glycan array binding signal (z-score),[3],-0.327
same,glycan array binding signal (z-score),[4],-0.253
same,glycan array binding signal (z-score),[5],-0.313
same,glycan array binding signal (z-score),[6],-0.313
same,glycan array binding signal (z-score),[7],-0.288
same,glycan array binding signal (z-score),[8],-0.284
same,glycan array binding signal (z-score),[9],-0.273
same,glycan array binding signal (z-score),[10],-0.278
same,glycan array binding signal (z-score),[11],-0.326
same,glycan array binding signal (z-score),[12],-0.313
same,glycan array binding signal (z-score),[13],-0.292
same,glycan array binding signal (z-score),[14],-0.284
same,glycan array binding signal (z-score),[15],-0.337
same,glycan array binding signal (z-score),[16],-0.315
same,glycan array binding signal (z-score),[17],-0.259
same,glycan array binding signal (z-score),[18],-0.397
same,glycan array binding signal (z-score),[19],-0.29
same,glycan array binding signal (z-score),[20],-0.345
same,glycan array binding signal (z-score),[21],-0.231
same,glycan array binding signal (z-score),[22],-0.277
same,glycan array binding signal (z-score),[23],-0.287
same,glycan array binding signal (z-score),[24],-0.325
same,glycan array binding signal (z-score),[25],-0.307
same,glycan array binding signal (z-score),[26],-0.274
same,glycan array binding signal (z-score),[27],-0.3
same,glycan array binding signal (z-score),[28],-0.283
same,glycan array binding signal (z-score),[29],-0.287
same,glycan array binding signal (z-score),[30],-0.285
